# Article PMC4336329 (PLoS ONE, 2015)
# Among all 310,000 compounds or so, about 14,000 (4.5%) showed an effect of 50% or more. The effect is printed as a negative number. This is one part of the list.
# Biological target: human ether-à-go-go-related gene (hERG) potassium channel (human, UniProt Q12809)
# Test: primary screen, population patch clamp on CHO cells stably expressing hERG
# 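Note: peak tail current of the secondary pulse compared with the same well before compound.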
# Sequence of human ether-à-go-go-related gene (hERG) potassium channel (Q12809 whole entry, looked up): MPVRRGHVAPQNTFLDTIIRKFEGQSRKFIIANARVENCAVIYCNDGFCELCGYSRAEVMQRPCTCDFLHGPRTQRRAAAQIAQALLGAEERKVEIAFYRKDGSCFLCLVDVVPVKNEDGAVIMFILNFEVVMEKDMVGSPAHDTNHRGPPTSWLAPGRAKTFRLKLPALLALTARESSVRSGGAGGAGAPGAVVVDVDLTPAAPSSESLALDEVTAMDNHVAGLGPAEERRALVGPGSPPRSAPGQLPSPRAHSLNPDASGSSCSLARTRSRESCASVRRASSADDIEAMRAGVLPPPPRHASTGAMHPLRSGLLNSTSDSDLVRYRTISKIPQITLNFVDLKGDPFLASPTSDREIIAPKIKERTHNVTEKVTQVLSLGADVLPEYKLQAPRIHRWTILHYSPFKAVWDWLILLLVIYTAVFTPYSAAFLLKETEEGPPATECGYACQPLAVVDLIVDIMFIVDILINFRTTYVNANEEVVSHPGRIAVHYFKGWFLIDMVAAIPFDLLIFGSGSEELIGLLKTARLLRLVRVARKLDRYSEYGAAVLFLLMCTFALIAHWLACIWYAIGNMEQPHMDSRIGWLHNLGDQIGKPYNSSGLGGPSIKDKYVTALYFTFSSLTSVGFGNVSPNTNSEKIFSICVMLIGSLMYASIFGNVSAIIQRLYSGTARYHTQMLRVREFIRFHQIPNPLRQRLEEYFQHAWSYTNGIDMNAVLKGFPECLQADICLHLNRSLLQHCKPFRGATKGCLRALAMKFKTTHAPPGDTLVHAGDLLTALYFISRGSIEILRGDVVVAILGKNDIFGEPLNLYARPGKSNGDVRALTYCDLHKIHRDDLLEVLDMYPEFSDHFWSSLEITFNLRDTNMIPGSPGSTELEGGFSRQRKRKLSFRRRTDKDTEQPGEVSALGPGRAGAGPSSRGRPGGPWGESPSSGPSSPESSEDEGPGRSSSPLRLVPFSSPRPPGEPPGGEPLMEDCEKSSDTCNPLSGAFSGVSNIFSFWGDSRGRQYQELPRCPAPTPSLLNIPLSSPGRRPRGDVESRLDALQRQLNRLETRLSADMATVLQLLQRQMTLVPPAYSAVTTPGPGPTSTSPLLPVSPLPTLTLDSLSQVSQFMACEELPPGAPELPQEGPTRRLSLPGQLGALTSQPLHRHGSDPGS
row,SMILES,"hERG current change (%, negative = inhibition) at 10uM [%]"
1,COCCCN1C(=O)C(=O)/C(=C(/O)c2ccc(OC)cc2)C1c1cccc(OC)c1 (stereo not shown),1.51
2,CCS(=O)(=O)N1CCC(C(=O)NCCCN2CCN(c3ccccc3F)CC2)CC1,-16.3
3,CCOC(=O)C1CCN(C(=O)CSc2nc3ncccc3[nH]2)CC1,7.58
4,COc1ccc(CNC(=O)Nc2cccs2)cc1OC,7.21
5,CSCCC1NC2(C(=O)Nc3c2ccc(Cl)c3C)[C@@H]2C(=O)N(C3CCCC3)C(=O)[C@H]12 (stereo partly shown),-20.6
6,c1ccc(CSc2ncnc3c2cnn3-c2ccccc2)cc1,2.68
7,O=C(Cc1ccccc1)Nc1cc(C(=O)c2ccccc2)ccc1N1CCOCC1,-28
8,Cc1ccc(-n2c(C)cc(C(=O)NS(=O)(=O)c3ccc(C)cc3)c2C)cc1,-30.8
9,CC(C)OC(=O)CCCN1C(=O)c2ccc(N)cc2C1=O,-11.2
10,Cc1ccc(NC(=O)Cn2c(O)c(N=NC(=O)c3ccncc3)c3ccccc32)cc1,19.5
11,OCC1(Cc2ccccc2)CCN(Cc2ccccn2)CC1,-9.51
12,Cc1nc2c3ccccc3n(CC#N)c(=O)n2n1,-0.213
13,CCOC(=O)C(CSCC(=O)c1ccc(Cl)cc1Cl)NC(=O)OC(C)(C)C (stereo not shown),-13.1
14,COc1ccc(-n2c(SCc3nnc(-c4ccccc4)o3)nnc2-c2ccccc2)cc1,-29.5
15,OCCOc1ccc(C2=NCCO2)cc1,-23.3
16,COc1cccc([C@@H]2Oc3ccc(OC)cc3C(=O)[C@H]2O)c1,16.8
17,CC1=CC(=O)C(C(C)C)=C/C1=N/OC(=O)c1cccc([N+](=O)[O-])c1,7.36
18,Cc1cccc(NC2=C(NC(=O)c3ccccc3)C(=O)c3ccccc3C2=O)c1,-19.4
19,CN(C)C(=O)Cn1c(SCC(=O)Nc2ccc3c(c2)OCO3)nc2ccccc21,9.04
20,Cc1ccnc(NC(=O)c2cc(-n3cnnc3)ccc2Cl)c1,15.5
21,COc1ccc(CN2CN(S(=O)(=O)c3cccs3)c3nc4ccccc4nc32)cc1,-5.48
22,O=C1/C(=C\c2ccco2)SC(=S)N1C1CCCCC1,16.3

row,SMILES,"hERG current change (%, negative = inhibition) at 10uM [%]"
1,CC(C)NC(=O)/C(C#N)=C\c1ccc(N(C)C)c(Br)c1,8.22
2,CC1CCCC(NC(=O)c2nn(C)c3c2CS(=O)(=O)c2ccccc2-3)C1C (stereo not shown),-2.12
3,On1c(-c2ccccc2)nc2ccccc21,12.3
4,Cc1oc(-c2cccc(F)c2)nc1CN1CCCCC1CCn1cccn1 (stereo not shown),-73.1
5,O=C(OCc1cccnc1)C1=Cc2ccccc2OC1,-64.9
6,O=C(COc1ccccc1Cl)Nc1ccccc1C(=O)Nc1cccc(C(=O)O)c1,23.8
7,O=C(O)C1C(c2ccccc2)C(C(=O)N2CCOCC2)C1c1ccccc1 (stereo not shown),-7.48
8,O=C(c1ccc(Cl)cc1Cl)c1ncc(C(F)(F)F)cc1Cl,-10.1
9,CCN(C(=O)COC(=O)c1ccc(F)c(S(=O)(=O)N2CCOCC2)c1)C1CCS(=O)(=O)C1 (stereo not shown),-22.4
10,Cc1cccc(-c2n[nH]c(=S)n2/N=C/c2ccc(C)o2)c1,2.4
11,Cc1c(NC(=O)COC(=O)C23CC4CC(CC(Br)(C4)C2)C3)c(=O)n(-c2ccccc2)n1C,9.08
12,CNc1ccc(S(=O)(=O)NC)cc1[N+](=O)[O-],10.2
13,Cc1ccc2nc(NC(=O)c3ccccn3)sc2c1,22.3
14,CC(NC(=O)c1ccc(OC2CCN(Cc3ccccn3)CC2)cc1)c1nccs1 (stereo not shown),-10.3
15,CC(C)(C)c1cnnn1-c1ccc([N+](=O)[O-])cc1,-8.46
16,CC(C)NC(=O)C(=O)NNC(=O)CCc1ccccc1,8.29
17,CC(C)CNC(=O)NC(=O)COC(=O)c1cccc(NS(=O)(=O)c2ccc(F)c(F)c2)c1,-24.5
18,O=C(c1ccc(Cl)cc1)c1c[nH]c(C(=O)C(Cl)(Cl)Cl)c1,13.5
19,COc1ccc(CNC(=O)Cn2ccc(NC(=O)OCc3ccccc3)nc2=O)cc1,19.1
20,COc1ccccc1N=C1SC(C(=O)Nc2ccc(F)cc2)CC(=O)N1C (stereo not shown),-18.7
21,COc1ccc(/C=C2\SC(=S)N(CCCC(=O)Nc3ccccn3)C2=O)cc1OC,12.7
